# Source: PubChem BioAssay (NCATS)
# The list shows a part of the results. Shown are side measurements of this screen, not its main read-out; they come without a call. The list favours compounds with an active or inconclusive main result. The note in brackets gives the kind of curve behind each potency; many fits are weak.
# Assay: qHTS Assay for Lipid Storage Modulators (AID 1519)
# Details: Drosophila S3 cells, BODIPY lipid droplet/cell ratio, laser cytometry, cells loaded with oleic acid
# Outline: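 Cells seeded at 5,000 per well were treated with compounds over a concentration series and loaded with oleic acid (400 uM, as added). Lipid droplet fluorescence (488 nm excitation, 500-530 nm channel) was read by laser-scanning cytometry and normalized to 20 uM Triacsin C.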
# [1] = measured here: cell count channel max response
# [2] = measured here: cell number channel AC50
# [3] = measured here: lipid (BODIPY) channel AC50
# [4] = measured here: lipid channel max response
# Tags tell the direction and shape of the fitted curve.
structure (smiles),measurement,setting,value
COc1ccc(-c2nc3cnc(OCc4ccccc4)nc3n(CCC#N)c2=O)cc1,max response,[1],25.5%
same,AC50,[2],"3.55 µM [rising, full curve, poor fit]"
same,AC50,[3],"3.55 µM [rising, single point]"
same,max response,[4],28.3%
CC(=O)NCCc1c(Cc2ccccc2)[nH]c2ccccc12,max response,[1],75.3%
same,AC50,[2],"12.6 µM [rising, partial curve, poor fit]"
same,AC50,[3],"12.6 µM [rising, partial curve, poor fit]"
same,max response,[4],99.9%
c1cncc(-c2nccc(NCc3cccs3)n2)c1,max response,[1],16.5%
same,AC50,[2],"0.708 µM [rising, full curve]"
same,AC50,[3],"0.631 µM [rising, full curve, poor fit]"
same,max response,[4],19.5%
O=c1c(-c2ccc(F)c(F)c2)nc2cncnc2n1-c1ccccc1,max response,[1],41.2%
same,AC50,[2],"3.55 µM [rising, partial curve, poor fit]"
same,AC50,[3],"0.178 µM [rising, full curve, poor fit]"
same,max response,[4],50.6%
COCCn1c(=O)c(-c2cccc(Cl)c2)nc2cncnc21,max response,[1],35.2%
same,AC50,[2],"3.98 µM [rising, full curve, poor fit]"
same,AC50,[3],"3.55 µM [rising, full curve]"
same,max response,[4],40.7%
CC(=O)NCCNc1ncnc2ccc(-c3ccccc3C(F)(F)F)cc12,max response,[1],-5.08%
same,AC50,[2],"3.98 µM [rising, single point]"
same,AC50,[3],"3.98 µM [rising, single point]"
same,max response,[4],-7.75%
COCCn1c(=O)c(-c2ccc(F)cc2)nc2cnc(Oc3ccccc3)nc21,max response,[1],5.18%
same,AC50,[2],"1.12 µM [rising, full curve]"
same,AC50,[3],"0.794 µM [rising, full curve]"
same,max response,[4],2.88%
CCSC(N)=Nc1ccc(C(F)(F)F)cc1,max response,[1],-36.6%
same,AC50,[2],"50.1 µM [falling, single point]"
same,AC50,[3],"89.1 µM [falling, single point]"
same,max response,[4],-44%
O=S(=O)(c1ccccc1)N1CCC2(CCCN(Cc3ccncc3)C2)CC1,max response,[1],44.9%
same,AC50,[2],"2 µM [rising, full curve]"
same,AC50,[3],"2.24 µM [rising, full curve]"
same,max response,[4],51.6%
COc1cc(OC)c2cc(-c3ccncc3)cnc2c1,max response,[1],94.2%
same,AC50,[2],"0.891 µM [rising, full curve]"
same,AC50,[3],"0.891 µM [rising, full curve]"
same,max response,[4],125%
Cc1cnc(CNc2cc(-c3ccccc3Cl)ncn2)cn1,max response,[1],23.5%
same,AC50,[2],"5.01 µM [rising, full curve, poor fit]"
same,AC50,[3],"4.47 µM [rising, full curve, poor fit]"
same,max response,[4],30.5%
CN(C)c1ccc(-c2nccc(NCc3cccs3)n2)cc1,max response,[1],-32.4%
same,AC50,[2],"39.8 µM [falling, single point]"
same,AC50,[3],"39.8 µM [falling, single point]"
same,max response,[4],-59.8%
COCCn1c(=O)c(-c2ccc(Cl)cc2)nc2cnc(N(C)C)nc21,max response,[1],45.2%
same,AC50,[2],"2.51 µM [rising, full curve]"
same,AC50,[3],"2.24 µM [rising, full curve]"
same,max response,[4],48.7%
CNc1nc(-c2cccc(C#N)c2)nc2ccccc12,max response,[1],35.8%
same,AC50,[2],"0.355 µM [rising, full curve, poor fit]"
same,AC50,[3],"0.447 µM [rising, full curve]"
same,max response,[4],36.6%
Cc1cc(Cn2cnc3c2C[C@@H](C(=O)O)N(C(=O)C(c2ccccc2)c2ccccc2)C3)ccc1N(C)C,max response,[1],77%
same,AC50,[2],"22.4 µM [rising, partial curve]"
same,AC50,[3],"15.8 µM [rising, full curve]"
same,max response,[4],94.9%
COCCn1c(=O)c(-c2ccc(OC)cc2)nc2cnc(OCc3ccccc3)nc21,max response,[1],30.5%
same,AC50,[2],"4.47 µM [rising, partial curve]"
same,AC50,[3],"2.24 µM [rising, partial curve]"
same,max response,[4],35%
Nc1ncnc2c1ncn2C1CC(O)C(CO)O1 (stereo not given),max response,[1],-47.2%
same,AC50,[2],"25.1 µM [falling, partial curve, poor fit]"
same,AC50,[3],"28.2 µM [falling, partial curve, poor fit]"
same,max response,[4],-64.5%
COc1ccc2cccc(N3CCN(CCNC(=O)c4ccc(F)cc4)CC3)c2c1,max response,[1],52.4%
same,AC50,[2],"5.01 µM [rising, full curve]"
same,AC50,[3],"5.62 µM [rising, full curve]"
same,max response,[4],64.1%
COc1ccccc1N1CCN(C[C@@H]2CN3C(=O)N(C)c4ccccc4C3=N2)CC1,max response,[1],79.3%
same,AC50,[2],"2.82 µM [rising, full curve]"
same,AC50,[3],"2.82 µM [rising, full curve]"
same,max response,[4],107%
CN(Cc1ccco1)c1ncncc1-c1cccnc1,max response,[1],36.2%
same,AC50,[2],"0.251 µM [rising, full curve]"
same,AC50,[3],"0.282 µM [rising, full curve, poor fit]"
same,max response,[4],42.7%
